In article PMC9911399, “Two distinct binding modes provide the RNA-binding protein RbFox with extraordinary sequence specificity”:
Changes are numbered by the printed parent chain; changes in the protein carry UniProt numbers. The list shows a part of the results.

T1: RBFOX1 RRM (Homo sapiens, UniProt Q9NWB1 109-208)
T1 sequence: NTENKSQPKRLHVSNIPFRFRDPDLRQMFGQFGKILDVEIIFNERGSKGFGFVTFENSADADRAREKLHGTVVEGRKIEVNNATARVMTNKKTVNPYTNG

B1: GAGUGAA (DNA:RNA)
RNA: GGGAGACCGGAAUUCAGAUUGUCCGAGUGAAUUAAAUCCCGUCGUAGCCACCA
DNA 1: CAATCTGAATTCCGGTCTCCC
DNA 2: TGGTGGCTACGACGGGATT
B2: UGUGUGU (DNA:RNA)
RNA: GGGAGACCGGAAUUCAGAUUGUCCUGUGUGUUUAAAUCCCGUCGUAGCCACCA
DNA 1: CAATCTGAATTCCGGTCTCCC
DNA 2: TGGTGGCTACGACGGGATT
B3: ACACUGU (DNA:RNA)
RNA: B2 RNA with U25A, G26C, U27A, G28C
DNA 1: CAATCTGAATTCCGGTCTCCC
DNA 2: TGGTGGCTACGACGGGATT
B4: UAGCUCG (DNA:RNA)
RNA: B1 RNA with G25U, U28C, G29U, A30C, A31G
DNA 1: CAATCTGAATTCCGGTCTCCC
DNA 2: TGGTGGCTACGACGGGATT
B5: GAACAGG (DNA:RNA)
RNA: B1 RNA with G27A, U28C, G29A, A30G, A31G
DNA 1: CAATCTGAATTCCGGTCTCCC
DNA 2: TGGTGGCTACGACGGGATT
B6: CUGGGCU (DNA:RNA)
RNA: B1 RNA with G25C, A26U, U28G, A30C, A31U
DNA 1: CAATCTGAATTCCGGTCTCCC
DNA 2: TGGTGGCTACGACGGGATT
B7: UCCGUCA (DNA:RNA)
RNA: B2 RNA with G26C, U27C, G30C, U31A
DNA 1: CAATCTGAATTCCGGTCTCCC
DNA 2: TGGTGGCTACGACGGGATT
B8: GCGCUGU (DNA:RNA)
RNA: B2 RNA with U25G, G26C, U27G, G28C
DNA 1: CAATCTGAATTCCGGTCTCCC
DNA 2: TGGTGGCTACGACGGGATT
B9: UUUUCGA (DNA:RNA)
RNA: B2 RNA with G26U, G28U, U29C, U31A
DNA 1: CAATCTGAATTCCGGTCTCCC
DNA 2: TGGTGGCTACGACGGGATT
B10: ACGCGCC (DNA:RNA)
RNA: B1 RNA with G25A, A26C, U28C, A30C, A31C
DNA 1: CAATCTGAATTCCGGTCTCCC
DNA 2: TGGTGGCTACGACGGGATT
B11: CCAUGUG (DNA:RNA)
RNA: B1 RNA with G25C, A26C, G27A, A30U, A31G
DNA 1: CAATCTGAATTCCGGTCTCCC
DNA 2: TGGTGGCTACGACGGGATT
B12: CCAUAGA (DNA:RNA)
RNA: B1 RNA with G25C, A26C, G27A, G29A, A30G
DNA 1: CAATCTGAATTCCGGTCTCCC
DNA 2: TGGTGGCTACGACGGGATT
B13: AUAACAA (DNA:RNA)
RNA: B1 RNA with G25A, A26U, G27A, U28A, G29C
DNA 1: CAATCTGAATTCCGGTCTCCC
DNA 2: TGGTGGCTACGACGGGATT
B14: AUCAUGA (DNA:RNA)
RNA: B2 RNA with U25A, G26U, U27C, G28A, U31A
DNA 1: CAATCTGAATTCCGGTCTCCC
DNA 2: TGGTGGCTACGACGGGATT
B15: CUUUUUU (DNA:RNA)
RNA: B2 RNA with U25C, G26U, G28U, G30U
DNA 1: CAATCTGAATTCCGGTCTCCC
DNA 2: TGGTGGCTACGACGGGATT
B16: AAACUUG (DNA:RNA)
RNA: B1 RNA with G25A, G27A, U28C, G29U, A30U, A31G
DNA 1: CAATCTGAATTCCGGTCTCCC
DNA 2: TGGTGGCTACGACGGGATT
B17: UUGGAGU (DNA:RNA)
RNA: B2 RNA with G26U, U27G, U29A
DNA 1: CAATCTGAATTCCGGTCTCCC
DNA 2: TGGTGGCTACGACGGGATT
B18: UCGCGAA (DNA:RNA)
RNA: B1 RNA with G25U, A26C, U28C
DNA 1: CAATCTGAATTCCGGTCTCCC
DNA 2: TGGTGGCTACGACGGGATT
B19: AAAUAAU (DNA:RNA)
RNA: B1 RNA with G25A, G27A, G29A, A31U
DNA 1: CAATCTGAATTCCGGTCTCCC
DNA 2: TGGTGGCTACGACGGGATT
B20: UCCCCGC (DNA:RNA)
RNA: B2 RNA with G26C, U27C, G28C, U29C, U31C
DNA 1: CAATCTGAATTCCGGTCTCCC
DNA 2: TGGTGGCTACGACGGGATT

target: T1, RBFOX1 RRM; assay: EMSA; HiTS-Eq, 1 nM pool, 10 min; buffer printed only for the single-RNA assays: 10 mM Tris pH 7.5, 150 mM NaCl, 3.4 mM EDTA, 0.001% NP-40, 30 C; conditions: tags: His6 N-terminal (pET28a); label: 5' 32P
In short: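 These values rest on relative association constants, computed from read-count changes of each RNA species versus the control reaction and normalised to the cognate motif. Reads came from free RNA recovered by 8% native PAGE after purified RbFox RRM (wild type or mutant) at increasing concentrations was equilibrated for 10 min in 50 µL with 1 nM of a 5′-radiolabelled pool with 7 randomized nucleotides and DNA-annealed flanks.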

First: B1
Second: B2
The binding signal of the first is lower: 0.00705 KA relative to UGCAUGU for the first, 0.0346 KA relative to UGCAUGU for the second.

First: B3
Second: B4
The binding signal of the first is lower: 0.00533 KA relative to UGCAUGU for the first, 0.0341 KA relative to UGCAUGU for the second.

First: B5
Second: B6
The binding signal of the first is lower: 0.0111 KA relative to UGCAUGU for the first, 0.0227 KA relative to UGCAUGU for the second.

First: B7
Second: B8
The binding signal of the first is lower: 0.00695 KA relative to UGCAUGU for the first, 0.0203 KA relative to UGCAUGU for the second.

Compared with B9, B10 is lower in binding signal: 0.0193 KA relative to UGCAUGU for the first, 0.00995 KA relative to UGCAUGU for the second.

First: B11
Second: B12
The binding signal of the first is higher: 0.0106 KA relative to UGCAUGU for the first, 0.00303 KA relative to UGCAUGU for the second.

Compared with B13, B14 is higher in binding signal: 0.00146 KA relative to UGCAUGU for the first, 0.00593 KA relative to UGCAUGU for the second.

Compared with B15, B16 is lower in binding signal: 0.0106 KA relative to UGCAUGU for the first, 0.0047 KA relative to UGCAUGU for the second.

First: B17
Second: B18
The binding signal of the first is higher: 0.0133 KA relative to UGCAUGU for the first, 0.0107 KA relative to UGCAUGU for the second.

First: B19
Second: B20
The binding signal of the first is lower: 0.000273 KA relative to UGCAUGU for the first, 0.00184 KA relative to UGCAUGU for the second.
